Measured values from PubChem BioAssay AID1346428 (National Center for Advancing Translational Sciences (NCATS), 2018).
Screen size: about 48,000 compounds; about 1,200 (2.5%) were called active. Inconclusive results (about 2%) are left out.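 Rule for the calls: active = activation of at least 60% and not above a set upper limit (about 1 call in 100 departs from these limits); inconclusive = activation of 40% to 60%, or above that upper limit; inactive = activation under 40%.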 The list shows a part of the results.

These compounds were tested against Probable G-protein coupled receptor 32 (Homo sapiens) (UniProt O75388) (assay: qHTS for Agonists of Human Resolvin D1 Receptor DRV1). Conditions: CHO-K1 GPR32 beta-arrestin PathHunter luminescence, 90 min; at 76.9 µM; hits give high values; zero percent set by DMSO-only wells.
Procedure, shortened: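 Luminescent readout of beta-Gal complementation quantifies ligand-induced beta-arrestin association with GPR32 in CHO-K1 cells; 90 min compound incubation at 37 °C, detection 1 h at room temperature.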
Note: 0% is about no effect.

Chain of UniProt O75388 (O75388 whole entry, looked up): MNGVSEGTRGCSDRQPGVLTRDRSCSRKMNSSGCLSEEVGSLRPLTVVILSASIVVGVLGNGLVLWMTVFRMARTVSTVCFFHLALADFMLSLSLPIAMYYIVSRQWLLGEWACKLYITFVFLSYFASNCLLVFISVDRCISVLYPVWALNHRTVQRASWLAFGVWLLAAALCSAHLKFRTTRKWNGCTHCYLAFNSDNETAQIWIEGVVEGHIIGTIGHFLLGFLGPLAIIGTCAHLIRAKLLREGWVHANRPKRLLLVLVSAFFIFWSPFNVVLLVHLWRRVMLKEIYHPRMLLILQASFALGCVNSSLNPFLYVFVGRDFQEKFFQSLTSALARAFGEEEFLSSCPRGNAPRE

Row | SMILES | activation
1 | COc1ccc(Cn2c(=O)n(-c3ccc(C)cc3)c(=O)c3c2c2cc(C)ccc2n3C)cc1 | inactive: 14%
2 | Cc1ccc(-n2nc(CO)c(C(=O)NCc3cccnc3)n2)cc1C | inactive: -11.2%
3 | COc1ccc(-c2noc(-c3nnn(-c4ccc(C)cc4C)c3C)n2)cc1 | inactive: -12.1%
4 | COc1ccc(NC(=O)CSC2=Nc3ccccc3C3=NC(CCC(=O)NC4CCCCC4)C(=O)N23)cc1Cl (stereo not drawn) | inactive: -9.87%
5 | COc1ccc(S(=O)(=O)c2cn(C)c3cc(N4CCCCCC4)c(F)cc3c2=O)cc1 | inactive: 0.282%
6 | CCOC(=O)c1cc(NC(=O)c2ccccc2)c(=O)n2c1oc1ccc(Cl)cc12 | inactive: -0.0293%
7 | CCOc1ccccc1CNS(=O)(=O)c1ccc(-c2cnc(C3CC3)o2)cc1 | inactive: 8.97%
8 | Cc1ccc(NC(=O)CSc2nncn2C)c(C)c1 | inactive: -3.36%
9 | O=C(Nc1cc(F)ccc1F)C1CCN(C(=O)c2cnn(-c3ccccc3)c2-n2cccc2)CC1 | inactive: 23.4%
10 | COc1ccc(Cl)c2sc(NC(=O)c3ccc(S(=O)(=O)N4CCCC4)cc3)nc12 | inactive: 9.83%
11 | COc1ccc(OC)c(C2CC(=O)Nc3c2c(=O)n(C)c2ncnn32)c1 (stereo not drawn) | inactive: -11.3%
12 | COc1ccccc1NC(=O)CSCc1cc(=O)c2cccc(Cl)c2[nH]1 | inactive: 32.2%
13 | O=C(CSC1=Nc2ccccc2C2=NC(Cc3ccccc3)C(=O)N12)Nc1cccc(Cl)c1 (stereo not drawn) | inactive: -22.6%
14 | COc1ccccc1Cn1c(C2CC(=O)N(c3ccccc3OC)C2)nc2ccccc21 (stereo not drawn) | inactive: -4.6%
15 | NCc1ccc(S(N)(=O)=O)cc1 | inactive: -5.6%
16 | CCN1C(=O)c2ccccc2Sc2ccc(NC(=O)Nc3cc(C)cc(C)c3)cc21 | inactive: -6.68%
17 | CCOC(=O)c1c(-c2ccccc2)oc2ccc(NS(=O)(=O)c3ccc(C)cc3)cc12 | inactive: -11.2%
18 | CCc1ccc2occ(CC(=O)Nc3c(C(=O)c4ccccc4)oc4ccccc34)c2c1 | inactive: -8.36%
19 | Cc1ccc(CNC(=O)c2cc3sc(Cl)cc3n2C)cc1 | inactive: 4.97%
20 | Cc1ccnc(NC(c2cccc(O)c2)c2ccc3ccc(C)nc3c2O)c1 (stereo not drawn) | inactive: -51.9%
21 | COc1ccc(-c2nc3n(n2)C(c2ccc(O)cc2)C(C(=O)Nc2cccnc2)=C(C)N3)cc1OC (stereo not drawn) | inactive: 4.33%

Row | SMILES | activation
22 | O=C(Nc1cccc(Br)c1)c1cc(S(=O)(=O)N2CCCCC2)c[nH]1 | inactive: -2.03%
23 | Cc1cc(S(=O)(=O)Nc2cc3c(cc2N2CCOCC2)n(C)c(=O)c(=O)n3C)ccc1F | inactive: -0.244%
24 | COC(=O)CN1C(=O)C(O)(c2c(C)[nH]c3ccccc23)c2ccccc21 (stereo not drawn) | inactive: -8.99%
25 | COc1ccccc1CNc1nccn(-c2ccc(F)cc2)c1=O | inactive: 30.2%
26 | CCCn1c2ccccc2c2cnn(CC(=O)NCC3CCN(Cc4ccccc4C)CC3)c(=O)c21 | inactive: -5.82%
27 | Cc1cccc(C(=O)N2CCc3cc(CNC(=O)c4ccco4)ccc32)c1 | inactive: 3.42%
28 | CCOCCc1nn2c(=O)cc(COC(=O)c3ccc(NC(=O)c4cccs4)cc3)nc2s1 | inactive: 5.35%
29 | CCCNC(=O)c1ccc(Cn2c(SCC(=O)NC(C)C)nc3ccccc3c2=O)cc1 | inactive: -6.68%
30 | CCc1oc2ccccc2c1C(=O)c1cc(Br)c(O)c(Br)c1 | inactive: 37.6%
31 | CCOc1ccc(CCNC(=O)NCc2noc3ccc(C)cc23)cc1 | inactive: -7.03%
32 | COc1ccc(C(=O)Nc2nc(-c3ccc(Br)cc3)ns2)cc1 | inactive: 1.59%
33 | Cc1csc2nc(COc3ccc(NC(=O)c4ccccc4F)cc3)cc(=O)n12 | inactive: 12.3%
34 | O=C(NC1CC(=O)N(c2ccc(F)cc2)C1)c1ccc(S(=O)(=O)N2CCOCC2)cc1 (stereo not drawn) | inactive: 0.543%
35 | COc1ccc(NC(=O)Cn2c(=O)c3cccn3c3ccccc32)cc1 | inactive: -13.5%
36 | Cn1c(=O)c2c(-c3ccccc3)n3c(c2n(C)c1=O)C(c1ccc([N+](=O)[O-])cc1)Nc1ccccc1-3 (stereo not drawn) | inactive: -11.9%
37 | COc1ccc(S(=O)(=O)NCCc2sc(-c3cccnc3)nc2C)cc1 | inactive: 24.2%
38 | CCOCCCN1C(=O)CN(C2CCCCCC2)C(=O)C1c1ccc(OCC)c(OC)c1 (stereo not drawn) | inactive: -14.5%
39 | CCOC(=O)c1c(NC(=O)c2ccc(S(=O)(=O)N3CCCC(C)C3)cc2)sc2c1CC(C)(C)NC2(C)C (stereo not drawn) | active: 120%
40 | Cc1ccc(-n2ncc3c(Nc4ccc5c(c4)OCCO5)ncnc32)cc1Cl | inactive: 0.551%
41 | Cc1ccc(C(=O)c2oc3ccccc3c2NC(=O)c2cc(-c3ccccc3)on2)cc1 | inactive: 0.254%
42 | CCOC(=O)c1[nH]c(C)c(CCC(=O)N2CCN(c3ccc(OC)cc3)CC2)c1C | inactive: -18.6%

Row | SMILES | activation
43 | CCCCN(C)S(=O)(=O)c1ccc(C(=O)Nc2sc3c(c2C(=O)OCC)CCN(C(C)C)C3)cc1 | inactive: -27.4%
44 | CCOC(=O)C1CCN(C(=O)C2CCN(S(=O)(=O)c3c(C)noc3/C=C/c3ccc(C)cc3)CC2)CC1 | inactive: -20.7%
45 | CCSc1nc(-c2ccccc2)nc2c1Cc1c(CO)cnc(C)c1O2 | inactive: 3.43%
46 | COc1cc(OC)cc(C(=O)Nc2ccc3c(c2)CCCN3C(=O)c2cccs2)c1 | inactive: -18.5%
47 | CCCC1=Nc2cc(C(=O)NCc3ccccc3)ccc2Sc2ccccc21 | inactive: -22.7%
48 | O=C1OC2(c3ccccc31)c1cc(Br)c(O)c(Br)c1Oc1c2cc(Br)c(O)c1Br | active: 68.3%
49 | COc1ccc(NC(=O)c2cccc3c(=O)c4c([nH]c23)CCCC4)cc1 | inactive: 1.5%
50 | O=C(O)CCC(=O)N1CCc2cc(S(=O)(=O)NCc3ccc(F)cc3)ccc21 | inactive: 8.03%
51 | COc1ccccc1Cc1nc2ccccc2nc1SCC(=O)NCc1ccc(C)cc1 | inactive: -13.4%
52 | COc1ccc(C)cc1NC(=O)Cn1nc(N2CCN(c3ccccc3OC)CC2)ccc1=O | inactive: 3.29%
53 | Cc1noc(C)c1S(=O)(=O)N(CC(=O)NCc1ccccc1)c1ccc(C(C)C)cc1 | inactive: -15.8%
54 | COc1ccccc1CNC(=O)C(=O)NCC(c1cccnc1)N1CCN(c2ccccc2)CC1 (stereo not drawn) | inactive: -11.3%
55 | COc1ccc(-c2nc(SCC(=O)NC3CCCC3)c(-c3ccc(F)cc3)[nH]2)cc1OC | inactive: -20.6%
56 | O=C(COCc1cc(-c2ccco2)on1)Nc1cc(Cl)ccc1O | inactive: -4.88%
57 | CC(=C(CCOC(=O)C(C)C)SSC(CCOC(=O)C(C)C)=C(C)N(C=O)Cc1cnc(C)nc1N)N(C=O)Cc1cnc(C)nc1N | inactive: 24.4%
58 | O=C(Nc1ccc2oc(-c3cccnc3)nc2c1)c1ccccc1F | inactive: 6.48%
59 | CC(=O)N1CCCc2cc(S(=O)(=O)Nc3ccc(Cl)cc3F)ccc21 | inactive: -12.1%
60 | COCCNC(=O)CCn1nc(-c2ccc(Cl)cc2)c2ccccc2c1=O | inactive: -11.9%
61 | COc1ccc(CC(=O)N2CCc3c([nH]c4ccccc34)C2c2ccc(SC)cc2)cc1 (stereo not drawn) | inactive: -28%
62 | CC1CCN(C(c2ccc(F)cc2)c2sc3nc(-c4ccco4)nn3c2O)CC1 (stereo not drawn) | inactive: 24.5%
63 | COc1ccc(C(=O)N2CCN(C(=O)COc3ccccc3)CC2)cc1OC | inactive: -0.0605%

Row | SMILES | activation
64 | COc1ccc(-c2nc3ccccc3s2)cc1NC(=O)c1cc(OC)c(OC)c(OC)c1 | inactive: 18.9%
65 | COc1ccc(NC(=O)C(NC(=O)/C=C\c2ccc3c(c2)OCO3)c2ccc(C)cc2)cc1 (stereo not drawn) | inactive: -5.17%
66 | CCc1ccc(-n2c(N3CCN(c4ccc(F)cc4)CC3)nc3ccccc3c2=O)cc1 | inactive: -31.2%
67 | O=C(c1ccc2c(c1)N(Cc1ccccc1)C(=O)c1ccccc1S2(=O)=O)N1CCOCC1 | inactive: -23.5%
68 | Cc1c(C2=CCN(S(=O)(=O)c3ccc(Br)cc3)CC2)c2ccccc2n1CC(=O)N1CCCC1 | inactive: -16.1%
69 | Cc1ccc(CNC(=O)CSc2c3c(nc4ccc(Cl)cc24)CCCC3)cc1 | inactive: -9.11%
70 | Cc1ccccc1CN1CCc2nc(N3CCN(c4ccccn4)CC3)ncc2C1 | inactive: -1.24%
71 | Cc1ccc2nc(-c3ccc(C)c(NC(=O)Cc4ccccc4)c3)oc2c1 | inactive: -19.1%
72 | CCOc1ccc(NC(=O)CN(Cc2ccccc2)S(=O)(=O)c2ccc(Cl)cc2)cc1 | inactive: 47.3%
73 | Cc1cc(C)cc(NS(=O)(=O)c2ccc3c(c2)OCC(C(=O)N2CCCC2)O3)c1 (stereo not drawn) | inactive: -8.1%
74 | COc1ccc2nc3oc(C(=O)Nc4cccc(C(F)(F)F)c4)cc3cc2c1 | inactive: 3.76%
75 | CCNC(=O)c1c(NC(=O)COc2ccc(F)cc2)sc2c1CCCC2 | inactive: -3.56%
76 | O=C(Nc1ccc(Br)cc1)N1CCC(CN2CCCC2)CC1 | inactive: -9.32%
77 | CCCC12CN3CC(C)(CN(C1)C3c1ccccc1Cl)C2=O (stereo not drawn) | inactive: -8.25%
78 | CCc1c(C)sc2c1CCN(C(=O)Nc1ccccc1C(=O)OC)C2c1ccc(F)cc1 (stereo not drawn) | inactive: -4.25%
79 | Cc1ccccc1NC(=O)CS(=O)(=O)c1cccc2nsnc12 | inactive: -15.4%
80 | Cc1c(Cl)cccc1NC(=O)c1ccc(NC(=O)N2CCSc3ncccc32)cc1 | inactive: -1.35%
81 | CCOc1ccc(C2C(C(=O)Nc3ccc(OC)cc3)=C(C)Nc3nc(SCc4ccc(Cl)cc4)nn32)cc1 (stereo not drawn) | inactive: -32.1%
82 | COc1ccc(NC(=O)CSc2c3c(nc4ccc(Cl)cc24)CCCC3)cc1Cl | inactive: -21.6%
83 | COc1ccc(N2CCN(CCCNC(=O)c3ccc4nc(CCc5ccccc5)oc4c3)CC2)cc1 | inactive: -6.74%
